Data: paper PMC12537989
No constants are given. Whether binding was seen depends on the method and setting. In cells and extracts the contact can be indirect. Some results given as binding are weak or reduced against the parent protein; the word gives no strength.

Key:
Test in all cases: co-IP; HEK293T cells co-transfected with SLC9A9 and the partner plasmid, collected 36 h after transfection; lysed in 50 mM Tris-HCl pH 7.4, 1 mM EDTA, 150 mM NaCl, 1% Triton; protein A/G Plus-Agarose and 3 ug antibody, 12 h at 4 C, 5 washes; immunoblot; some samples with amiloride treatment (interaction inhibited)
Rab5a (mouse) = biological target: T1, Rab5a (mouse) (UniProt Q9CQD1)
T1 sequence: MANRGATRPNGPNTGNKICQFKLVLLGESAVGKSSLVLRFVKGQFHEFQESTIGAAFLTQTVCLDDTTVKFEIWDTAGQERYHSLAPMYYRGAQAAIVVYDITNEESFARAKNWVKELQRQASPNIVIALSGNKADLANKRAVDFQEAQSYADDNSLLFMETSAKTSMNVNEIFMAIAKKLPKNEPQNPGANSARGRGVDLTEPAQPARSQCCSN

Vps41 (mouse) = biological target: T2, Vps41 (mouse) (UniProt Q5KU39)
T2 sequence: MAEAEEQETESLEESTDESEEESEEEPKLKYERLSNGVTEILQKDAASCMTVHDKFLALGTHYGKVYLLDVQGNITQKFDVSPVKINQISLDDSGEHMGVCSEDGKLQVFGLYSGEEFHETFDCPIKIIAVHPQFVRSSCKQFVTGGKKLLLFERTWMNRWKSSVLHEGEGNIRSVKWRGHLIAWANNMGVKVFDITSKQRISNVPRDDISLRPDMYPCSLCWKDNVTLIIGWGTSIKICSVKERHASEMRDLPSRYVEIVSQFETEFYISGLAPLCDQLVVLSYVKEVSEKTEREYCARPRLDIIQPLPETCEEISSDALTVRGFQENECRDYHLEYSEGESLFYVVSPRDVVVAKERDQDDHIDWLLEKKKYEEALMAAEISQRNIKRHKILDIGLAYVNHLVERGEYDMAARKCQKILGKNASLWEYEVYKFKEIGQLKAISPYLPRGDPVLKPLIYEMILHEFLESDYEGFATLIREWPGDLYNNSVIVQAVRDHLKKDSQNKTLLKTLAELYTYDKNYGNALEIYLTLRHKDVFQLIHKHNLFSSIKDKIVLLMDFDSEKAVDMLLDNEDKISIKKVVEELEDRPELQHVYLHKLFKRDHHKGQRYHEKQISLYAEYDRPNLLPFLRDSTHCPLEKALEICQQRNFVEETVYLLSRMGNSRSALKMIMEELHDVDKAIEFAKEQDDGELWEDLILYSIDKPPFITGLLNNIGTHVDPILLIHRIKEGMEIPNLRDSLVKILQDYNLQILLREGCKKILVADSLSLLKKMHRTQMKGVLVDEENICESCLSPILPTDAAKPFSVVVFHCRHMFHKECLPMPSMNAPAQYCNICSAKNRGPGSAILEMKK

Vps33b (mouse) = biological target: T3, Vps33b (mouse) (UniProt P59016)
T3 sequence: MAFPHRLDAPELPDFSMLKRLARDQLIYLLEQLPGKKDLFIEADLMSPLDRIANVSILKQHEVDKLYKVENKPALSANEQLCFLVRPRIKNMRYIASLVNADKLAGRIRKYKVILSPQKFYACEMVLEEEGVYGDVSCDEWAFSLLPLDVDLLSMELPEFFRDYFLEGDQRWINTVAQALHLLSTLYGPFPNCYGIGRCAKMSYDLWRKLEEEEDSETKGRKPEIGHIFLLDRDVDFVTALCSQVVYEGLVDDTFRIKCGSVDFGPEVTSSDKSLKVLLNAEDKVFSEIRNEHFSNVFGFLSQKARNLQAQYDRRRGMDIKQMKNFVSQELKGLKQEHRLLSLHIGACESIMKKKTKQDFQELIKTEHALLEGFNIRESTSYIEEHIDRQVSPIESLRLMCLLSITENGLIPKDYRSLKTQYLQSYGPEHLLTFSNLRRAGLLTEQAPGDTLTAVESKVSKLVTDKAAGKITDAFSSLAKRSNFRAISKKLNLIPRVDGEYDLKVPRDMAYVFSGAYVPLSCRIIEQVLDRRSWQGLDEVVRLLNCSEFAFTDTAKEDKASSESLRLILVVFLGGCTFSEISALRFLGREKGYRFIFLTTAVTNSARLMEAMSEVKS

B1: Endosomal solute carrier family 9 member A9 (SLC9A9) (protein, UniProt Q8BZ00 1-644)
chain: MAGQLRFTSGKDEDHFQHQGAVELLAFNFLLILTILTIWLFKNHRFRFLHETGGAMVYGLIMGLILRYATAPTDIDSGTVYNCGNLFFSPSTLLVNITDQVYEYKYQREINQHNISPHQGNAILEKMTFDPEIFFNVLLPPIIFHAGYSLKKRHFFQNLGSILTYAFLGTAISCVVIGLIMYGFVKAMVHAGQLKSGDFHFTDCLFFGSLMSATDPVTVLAIFHELHVDPDLYTLLFGESVLNDAVAIVLTYSISIYSPKENPNAFDTAAFFQSVGNFLGIFAGSFAMGSAYAVVTALLTKFTKLREFPMLETGLFFLLSWSAFLSAEAAGLTGIVAVLFCGVTQAHYTYNNLSSDSKLRTKQLFEFMNFLAENVIFCYMGLALFTFQNHIFNALFILGAFLAIFVARACNIYPLSFLLNLGRKQKIPWNFQHMMMFSGLRGAIAFALAIRNTESQPKQMMFTTTLLLVFFTVWVFGGGTTPMLTWLQIRVGVDLDESLKEEPSSQQEANKLDKNMTKTESAQLFRMWYGFDHKYLKPILTHSGPPLTTTLPAWCGPVSRLLTSPQAYGEQLKEDDVECIVNQDELAMNYQEQSPSPSSPTTKLALDQKSSGQTPGKENIYEGDLGLGGYDLKLEQTRGQPQMD
B1 was tested, and the binding (Rab5a (mouse)) was “no binding”, the binding (Vps41 (mouse)) was “binds” and the binding (Vps33b (mouse)) was “binds”.
